# Assay results from publication PMC10726135.
# This is one part of the list. At the low end of the ranking the order means little. Measured with an extract: partners may take part in the binding.
# Molecular target: T1, HNF4alpha2 (COS-7 nuclear extract) (UniProt P41235)
# T1 sequence: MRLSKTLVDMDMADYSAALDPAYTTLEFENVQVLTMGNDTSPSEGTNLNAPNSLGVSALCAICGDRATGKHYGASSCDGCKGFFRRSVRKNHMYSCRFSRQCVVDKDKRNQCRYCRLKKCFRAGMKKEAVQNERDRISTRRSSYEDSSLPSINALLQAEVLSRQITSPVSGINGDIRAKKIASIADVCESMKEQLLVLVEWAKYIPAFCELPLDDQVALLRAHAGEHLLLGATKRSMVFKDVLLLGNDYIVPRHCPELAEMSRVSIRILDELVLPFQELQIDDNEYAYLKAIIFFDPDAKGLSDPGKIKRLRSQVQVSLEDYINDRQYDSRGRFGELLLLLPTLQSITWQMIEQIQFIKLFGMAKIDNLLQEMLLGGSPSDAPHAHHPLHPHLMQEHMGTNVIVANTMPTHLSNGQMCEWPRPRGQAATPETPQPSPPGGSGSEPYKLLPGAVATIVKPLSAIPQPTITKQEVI
# Experiment: protein-binding microarray
# Details: COS-7 nuclear extract on double-stranded Agilent 4x180k PBM; binding buffer, salt, pH and temperature not given; high values mean tight binding; double strand, one strand shown; sequences stand for … in …GCCTAGGGAGATTAGAGTATCGGTCGA
row,Sequence,binding signal (log2 normalized intensity)
1,TCTAACAGCTGATGAGGCACCAACACTTCC,-1.1
2,TAAGTGACCCAGGAGGAGAAGGGTGGGAAT,-1.12
3,AAGACTTTGGACTTTGGACCTGAGGCTTTT,9.84
4,CCTATGAGCCAAACACCATGCTAGGCTTCT,-1.04
5,AGACATCACCTGCTCATTGACCCTTAGGCC,3.72
6,ACCTTTGCCTTCTTGACATCTCTCTCTGCA,1.17
7,ATTGAGAAAGATTAAGAGGCTACAACCAGA,-1
8,TGACAAAATAACGAAGGCATTCTTAACAAA,-1.07
9,ACAATTTGAGGGGTCAAGAAGACCTGGGCT,-1.08
10,TACAAAGGTGACTTGCCCAGACACACCTGC,-1.14
11,TGGATGGATCCGCAGCCAGGGCTGTTTTCT,-1.12
12,CCTCCCCCCAGTTCCCTGGGTCGCCAAGCC,3.55
13,GGGAGAGGAGTTTGTTCACCCACCAGAGGG,-1.08
14,GGTCCTCTGCTGCCCTCTAGGGTTGCCCAG,0.95
15,AGTCCCTGTCCCTTCTTGGCAAGTTAATGT,1.94
16,AGGAGGGAGGAGCATTTCACAGAAATTTTT,-1.11
17,TCTTCTTAGCCTTTGAACCCCACACCTCCC,5.02
18,AAATCCCAAGCAGTGATATTCTCTCGTCAC,-0.223
19,TCCTCTCCCAGCCCCTAGCCCTAAGCAGGC,2.79
20,CCACAGAAAAGGCAGCAGCTTGGAATGTCA,-1.31
21,CAATAAGGACTTTGGACCGTCTTGTGGATC,5.92
22,TTTGTACACACAGCACTGCAAACAGTGAGC,-1.13
23,TGGTTTTATCAGCTGAGGCCATTGCCTTTC,0.817
24,GGGAGGAGGGGGGAGGGTCGGCAACGGTGA,-0.986
25,GTCAAACCTTTGACCCTTTATAATCCCCTA,4.25

row,Sequence,binding signal (log2 normalized intensity)
1,TTACTGAACGCTGCGCATACCATATGCATT,-1.16
2,GTGCCTGTGCATACCTGGAATTGTACACAT,0.0805
3,ATCTTATCAGCAAGGGCATTTGCGTAGGCT,-0.0469
4,GGGCGAAAAAGACGCGGTCTCAGTTAACGG,-1.19
5,GAAAGAGACCTTTGACATCACCTAACTTGT,1.8
6,GGTACAGCAGCATAAAGGACTTTCAACCCT,4.04
7,GATCTTTGACCGCTGCCTCCCACCCCCACG,5.37
8,GTCCTCACCCAGAACTTTGACCGTTTGATT,3.5
9,TGGGCCTTCAGCTTGAAAACACAACAAAAG,-1.19
10,TGTTAGCAGAGCAATTACTCATGTCCTCAG,-0.707
11,TATTTTATAGAAAAGGAAAGTGAGGCCTGG,0.051
12,AGGATTATAGTTTATCTACCTTTGTACCTT,5.34
13,TTTAGCAGCACCATCCTACAGGGTATGAAT,-1.04
14,TTATCTTCAGGTTTGCTAATATCTGATGTT,1.19
15,CCAAGGCGTATGAAGCTTTGACCCTGTTTT,3.22
16,GAGGCCATATCACAGGAGAAAACAGCACAA,-1.09
17,TGGTTCACACCCCACGTACATTGCACCCTC,4.17
18,TCCATAATCCCCGAATGTCCAGACTGTGCA,2.03
19,ATACACTTTCCGTACTTTTCATCTGATCAG,1.24
20,ACACTCATCAGGTGAGATAAGAAGACTCCA,-1.16
21,GGATAAGCATGGAGATGAGTGGGTTCACTT,1.24
22,TGGGCCACCTGCCATCATTTTCTGACCAGG,-0.57
23,GTCTTAATAAGATAATAAGTGACCCAGGAG,1.64
24,ACCCAGGCAAAGTCCAGAAATAGCATCACG,0.911
25,GATAAGGAACTGTTATCAAGTGAGAAACCA,-1.16

row,Sequence,binding signal (log2 normalized intensity)
1,CCTGCCAGCTGTTATGAGTCTGTTGTCTAA,1.42
2,GTTGGACTGAGGACCACATGAGTAAACAAG,-0.371
3,ATTTCAAAGGGAGCATATGTATGTCAGAGT,1.64
4,TTCTCTGGTCTGCGGTTGTGTAGACGCTCT,1.11
5,ATGAACTTTGACCCACCTACATTGATATTC,4.81
6,ACTAGGCTACATGATACAGCCTTTTGCCCC,3.4
7,GAAGTGAAGTTACAAAGGTCACGCTCCTGT,4.09
8,AAGAGAGAGTAGCTCCAAAAGGTGGACAAG,-0.956
9,ATTTGATAAGGGTATGGATTCTGGGACCCA,-0.26
10,CCTCCCGGTCACTACAACAACGGCGGCCCA,-1.08
11,GAGTAACCTGCTTGTTTTCCCAACAGGTGT,1.22
12,ACTGGATTCTCAGCCTCACCCTGGTGCTGC,-1.21
13,CCATTCTTGAGGACAGGCCAAATCCAGTAA,-0.994
14,CTGGGGGAGTTTCCTGCCTGGTCCGCCCTT,1.42
15,ATTGGAGAGCATCTTGGACTTGGGACTCTG,5.78
16,AGCCTGTTCCGACCTTAGTACTCTGCCATG,2.37
17,GCTTGTTCTCTCCCCCAACCCCACCTTCAT,4.53
18,AACTGGCTTTAAGAGGAATGCTTTGAGCCA,-1.13
19,GAGAGGGGGAGTGAAGGTTAGTACTCAGAA,-0.568
20,GAATATCTCAGCAGCCTGGCTGCTCGCAGT,-1.13
21,CTGTCCTGGACTTTCCTTTGTTGGGAGACT,1.19
22,AAAAAATTACTGACCCTTGCACTGTAAGAT,3.49
23,GTTTGACCTTTCACCCAGAAAAGGCTGTAA,3.7
24,AGCTGCTAAGTCTTTCCACACAGCCTGTCA,-0.644
25,TCTGATCCCAATTTATCTTTCCAGATTGTT,0.501

row,Sequence,binding signal (log2 normalized intensity)
1,CTACATAAGGGTAGAGACCTTTGTTTTGTT,2.18
2,CTCTAGAGGGCTGCTTATCTAGGATGAGAA,-0.882
3,TGATCCCCTCTCCTTTGGTGCAAATACCAT,1.65
4,AGGAGGAAGGACACTTAGAGATAAGGTAAC,-1.06
5,TATAAGAAACTGCTCCTGCTTGGGAGAACC,-1.03
6,CCTTACCTCCATTAACTAACCTTTGAACCA,6.78
7,GAGTCCACCACTGACCTTAGACCCTCAGGC,4.12
8,GGAAAAAGGGAGATAGGTTAAAATTTATCT,-0.854
9,GCTCCTAGCCCTGCAGTGTATGACACAGCC,-1.21
10,GAGGAGTCAAAAGGTGTATGTGGACTTTCA,4.51
11,CAGTTACAAACAAAACAAACTAAACACAGT,-1.21
12,TAGTATGTGCTAGGCATTTTATAGTATTTC,0.73
13,TCTCTTCCCAACAGGAGATTACTTCAAGGC,-0.662
14,GGATGTCTTTTTCTGACCCATGGGTTGAGG,2.09
15,GGTATGTACTTTCTTTTGGCTCTCTCTCTT,1.48
16,GCTGCTTCTCGTCCCCGCCCGAGCCGAACC,3.21
17,CAGGGTTAAGGTTTTGTAACACAGAGGCAG,0.621
18,TGCCCTTTGTCCAGGGTGAGAGGGACCCTT,2.41
19,CATCAAACACTCACTGGGAGAGAAAGCTAA,-1.19
20,AACCCAGCAAACCTGTCTCTCTGCATTCCT,-1.07
21,GTGCAGATTCCACACTGGCTAGATAAGGCT,-1.22
22,CTTTTATCTTAGGTAATAAGCCTGAATTCT,-0.81
23,TCACCTTTGCTCTGATCTTTGACTTCTAGT,3.02
24,TCATGCTTTCATCTCCCCAACACTTAAAAC,2.58
25,TTGCAAAATCCTTAGCAAATAGAGATGCAT,-1.14

row,Sequence,binding signal (log2 normalized intensity)
1,AACTGACACTTGTTTGAATTGTGATAATAA,1.14
2,AAGCAGAGGAGTGGCCATGATGCCATCTGG,-1.09
3,TGCAGAGAGAGAGGGAGACAACCTTTGGTC,4.86
4,CATACCAGGCAGAGGGTTAACCCCTATTAA,1.62
5,GGTTTAGCAAGAATACTGCTGGGTCAGTTT,1.48
6,ATCTAAGTGGGTCTAGGTTCTGGGGTGATT,1.77
7,CAGTGACCCAAATATGGTCCCTGACCTTAA,3.36
8,ACACACCAAAACTCTCTCTCTGTGTCACAT,0.234
9,CAGTGACTAGCAGATTCTGTGTGGTAAAAG,0.592
10,TCTTGGCAGTGATCAGTGTTGAGAATCCCT,-0.922
11,ATGAATAACTTGAATTGATTGCCAAGAGGG,-1.15
12,ACTGGAGCAAAGGTCACTCTTGCTAAGCTT,4.29
13,ATCAAAAACCATTTGACAATTTACAGTGTT,0.409
14,AAGATTTATCAGGTCTTTCTTTCAGAACAG,0.622
15,ACCTTTGAAACATATCCAGAATGTGTTTGC,1.53
16,GCCTGAGAATGAGGGGCAGGCTTAGCTGGG,-1.13
17,AGAAAGCTTTGGACTTTGGGCTGTGTTTTG,4.64
18,GTGGGTATTTGGGGAGTTCTTTCTGCCAGA,0.8
19,TGCTTTAGGCCTCAAGACAAACAATAGATA,-0.588
20,AGGCCATTGCCTTTCTCTGTGTGTATGTGT,2.59
21,TTAGGGGTTTGTCCAAGAAAAAGGAGCAGA,-0.835
22,ACTATTCCTTTGTTTAGACTTGGGGCCAAA,1.24
23,TGAATATCTATTATTAGGTACAAACATACT,-0.088
24,AGATCTGGGCAATGTCAACAAATACTGACC,1.18
25,GGCAGGATGCATGCACTTCATTGTGCACCC,1.74

row,Sequence,binding signal (log2 normalized intensity)
1,CACAGTAAGAGACTTCACCATCTGCAAGTG,-1.15
2,GAAAAGAAGGATAGAGAGTTGGGAGGGAAC,-1.05
3,AAAGACTTGCTCATTGATGAGTGACCTTTG,6.15
4,TCAGCCTTCTCCGCGGCGGGCCCTCGACCT,-0.582
5,AATAGATGGCGCAGCGGGTCAATTAGCTTG,0.323
6,CAGCGACTTGGGAGGCTGAGGTGGAAGGAT,-1.27
7,TGCCCCAGGAATGCCTTTTCTTTCATGTTG,1.43
8,TCACCTACTGACCTTTCTCCCTTTTCACAG,2.86
9,AGGCAAAGGTGTCAGGACCTTTCTTTATGG,0.852
10,GTAAATAACATTGCTGACCCCCTACATAGA,3.8
11,GCTAGGCAGGCTCAGAACTACCAATGTTTA,-1.17
12,AAAGGACATCTCCGAGTCCAGGGATAACAG,0.635
13,AAGGTCACTTCGCATTTCCAAAAGAAGAAT,-0.7
14,CTTCGTCCTTGCCCCTGGCTGGGCCCTGAC,0.738
15,CACTTCTCACATCACGTCTCTCTGGGGCCC,1.14
16,TCAAAGGTGAGTGGGGAAAGAGCCCCTTTG,-1.2
17,GAGCGGCCTTCGCACCTGCCTGTCTCACCT,-0.911
18,AGTCATGTCTTCATGCTTTCAGCCTCTCTG,0.358
19,CATGCCTAGGTAAGCCCACTAGGGAATGAA,-1.19
20,GTTTTTTCTTATTTGCTCTCCTGAGGCAAG,0.0629
